Assay results from ChEMBL document CHEMBL1201862, “PubChem BioAssay data set” (2004).

test system: NCI-H322M; assay: growth of human tumour cells (NCI), 48 h

SMILES | GI50
Cc1cc(C)c(O)c(CN2CCN(C(C)C)CCN(C(C)C)CC2)c1 | inactive: 41.8 µM
COC(=O)C1(C(=O)OC)CC2=C(S(=O)(=O)c3ccccc3)C[C@H](C#N)[C@H]2C1 | inactive: > 100 µM
CCCCCCCCCCCCCCCCP(=O)(O)OP(=O)(O)OCC1OC(n2cnc3c(N)ncnc32)C(O)C1O (stereo not drawn) | inactive: 52.6 µM
O=C1CCCN1C(=O)CS(=O)(=O)c1ccccc1 | inactive: > 100 µM
CC(=O)NC1CC2Oc3ccc(C)cc3C(C)(O2)C1O (stereo not drawn) | inactive: > 100 µM
COc1cc(/C=C/c2ccc(OC(C)=O)cc2)cc(OC)c1OC | inactive: 49.9 µM
O=S(=O)(N=[Se](=O)(c1ccccc1)c1ccccc1)c1ccccc1 | inactive: > 100 µM
O=c1cc(-c2ccc(O)cc2)oc2cc(O)cc(O)c12 [APIGENIN] | inactive: 29.9 µM
COC(=O)C1=C(c2ccc3c(c2)OCO3)OC(c2ccc3c(c2)OCO3)C1 (stereo not drawn) | inactive: > 100 µM
O=C1CC(c2c[nH]c3ccccc23)C(=O)N1 (stereo not drawn) | inactive: > 100 µM
Nc1ccc(S(=O)(=O)C23CC4CC(CC(C4)C2)C3)cc1 | inactive: > 100 µM
COc1cc(/C=C\c2ccccc2)cc(OC)c1OC | inactive: 7.33 µM
CC(C)(C)C(=O)OC12/C(=N/O)CCCCCC1c1ccccc12 (stereo not drawn) | inactive: 16.6 µM
NCCCCN [PUTRESCINE HYDROCHLORIDE] | inactive: > 100 µM
CC(C)OC(=O)NNc1cc(Cl)ccc1Cl | inactive: 36.2 µM
COC1CCC(OS(C)(=O)=O)C(C)O1 (stereo not drawn) | inactive: > 10 µM
CCN(CC)CCCC(C)NC(=O)c1ccc2c(c1)C(=O)c1ccccc1C2=O (stereo not drawn) | inactive: 20.8 µM
Cn1c(=O)n(CC2CS2)c2ccccc21 (stereo not drawn) | inactive: > 100 µM
CC1=C(C(=O)N(C)c2ccc(Cl)c(C(=O)OC(C)C)c2)SCCO1 | inactive: > 100 µM
O=C(Cc1ccccc1)NCCc1ccc(O)c(O)c1 | inactive: > 100 µM
CC1(C)CC2(C)OC(=N)C1(C#N)C2(C#N)C#N (stereo not drawn) | inactive: 14.3 µM

SMILES | GI50
CCOC(=O)/C(=C\NC(C)(C)CO)c1nc2ccccc2[nH]1 | inactive: > 100 µM
C/C(=C\c1ccccc1)n1c(=O)cc(C)n1C | inactive: > 100 µM
Cc1sc2nc3n(c(=O)c2c1C)N=CN(c1ccccc1)C3 | inactive: > 100 µM
CC1(C)OC(CP(c2ccccc2)c2ccccc2)C(CP(c2ccccc2)c2ccccc2)O1 (stereo not drawn) | inactive: 1.44 µM
COc1ccc2c(c1)CC[C@@H]1C2CC[C@]2(C)C(=N\O)/C(=N/O)CC12 (stereo partly drawn) | inactive: 15.6 µM
CC1CC(NC2CCCCC2)=Nc2ccccc2N1Cc1ccccc1 (stereo not drawn) | inactive: 9.79 µM
COC(=O)CCC(=O)CC(=O)C1=NS(=O)(=O)c2nc(S(N)(=O)=O)c(Cl)cc2N1 | inactive: > 100 µM
CC1(C)OC(=O)N(c2ccccc2)C12C=Cc1cc([N+](=O)[O-])ccc1O2 (stereo not drawn) | inactive: 97.9 µM
N=C(N)NS(=O)(=O)c1ccc(/N=N/c2c(O)c(C(=O)O)cc3ccccc23)cc1 | inactive: > 100 µM
O=S(=O)(CC#CCS(=O)(=O)c1ccccc1)c1ccccc1 | inactive: 16.7 µM
Clc1ccc(-c2nnc(-c3nn(-c4ccccc4)c4nc5ccccc5nc34)o2)cc1 | inactive: > 100 µM
COc1cccc(/C=C(/C(=O)O)c2cc(OC)c(OC)c(OC)c2)c1 | inactive: > 100 µM
CC(C)(C)OC(=O)CC(NC(=O)OC(C)(C)C)C(=O)N[C@@H]1CCCC[C@H]1C(=O)OCc1ccccc1 (stereo partly drawn) | inactive: 60.8 µM
O=S(=O)(Cc1ccccc1)SCc1ccccc1 | inactive: 45.7 µM
COc1cc2c(cc1OC)C(C1CC1)ON(C)CC2 (stereo not drawn) | inactive: > 100 µM
Cc1ccc(S(=O)(=O)NC(=O)Nc2nc(Cl)cc(Cl)n2)cc1 | inactive: > 100 µM
O=C(CCCN1CCC2(CC1)/C(=N/C1CCCCC1)NC(=O)N2c1ccccc1)c1ccc(F)cc1 | inactive: 21.1 µM
Cc1ccc(/C=C2\CNC/C(=C\c3ccc(C)cc3)C2=O)cc1 | inactive: 2.86 µM
O=C(c1ccccc1)c1c(CC(O)c2ccncc2)n(C(=O)c2ccccc2)c2ccccc12 (stereo not drawn) | inactive: 27.8 µM
O=C(NCCCCCCCCCCCCNC(=O)c1cccc2ccccc12)c1cccc2ccccc12 | inactive: > 100 µM
CCc1nc(N)nc(N)c1-c1ccc(N2CCOCC2)c(N=[N+]=[N-])c1 | inactive: 94.4 µM

SMILES | GI50
C/C=C(\C)C(=O)OC1CC(OC(C)=O)C2(C(=O)OC)COC3C2C1(C)C1C2(C(=O)OC)OCC1(C3O)C1(O)C3CC(C4(O)C=COC4O3)C1(C)O2 (stereo not drawn) | inactive: > 100 µM
CC1C[C@]2(C[C@@H](C)C(=O)O2)OC2CC3(C)C4CCC5C(C)(C)OC(=O)CC[C@@]56C[C@@]46CC[C@]3(C)C12 (stereo partly drawn) | inactive: > 100 µM
Nc1c2c(nc3ccccc13)-c1ccccc1CCC2 | inactive: 15 µM
c1ccc(C2CC(NC3CCCCC3)=Nc3ccccc3N2)cc1 (stereo not drawn) | inactive: 49.8 µM
CC(C)C(N)(C(=O)O)c1ccccc1 (stereo not drawn) | inactive: > 100 µM
O=C(CCC(NC(=O)OCc1ccccc1)C(=O)OCc1ccccc1)Nc1ccc(OCc2ccccc2)cc1 (stereo not drawn) | inactive: > 31.6 µM
Cc1ccc(/N=N/C(C2=NC(=O)CS2)c2nc3ccccc3[nH]2)cc1 (stereo not drawn) | inactive: > 100 µM
C[C@]12CC[C@H]3[C@@H](CCC4=CC(=O)CC[C@@H]43)[C@@H]1CC[C@@H]2OC1(O)C(=O)c2ccccc2C1=O | inactive: 77.1 µM
CCN1CC2(CO)CCC(OC)C34C5CC6C(OC)CC(O)(C5C6OC)C(O)(C(OC)C23)C14 (stereo not drawn) | inactive: > 375 µM
C=CC(O)C#Cc1cnc(OC)nc1OC (stereo not drawn) | inactive: > 100 µM
CCCCCCc1cc2c(C)c(C)c(=O)oc2cc1OCCCOc1cc2oc(=O)c(C)c(C)c2cc1CCCCCC | inactive: > 100 µM
CCc1nc2ccccc2c(=O)n1/N=C(\N=N\c1ccc(Cl)cc1)c1ccccc1 | inactive: 27.1 µM
CC(C)(C)NCc1cc(C(C)(C)C)cc(-c2ccc(Cl)cc2)c1O | inactive: 13.6 µM
CCOc1cc(NC(C)=O)ccc1C(=O)NNC(=O)c1ccccc1OC(C)=O | inactive: 8.57 µM
CC(=O)OCC(OC(C)=O)C1C[C@H]2O[C@@H]3[C@H](C[C@H]2O1)O[C@@]1(C[C@@H]3C)C[C@H](C)[C@@H]2O[C@]3(C[C@@H]2O1)C[C@H]1O[C@H]2[C@H](C)[C@H]4OC(=O)C[C@H]5CC[C@@H]6OC7[C@H]8O[C@]9(CC[C@H]%10CC(=O)[C@H](CC[C@H]%11C[C@@H](C)C(=O)C(C[C@@H]4O[C@H]2C[C@H]1O3)O%11)O%10)CC8O[C@@H]7[C@@H](O9)[C@H]6O5 (stereo partly drawn) | active: 0.00251 µM
CCOC(=O)[C@H]1Nc2ccc(O)cc2C2c3ccccc3CC21 (stereo partly drawn) | inactive: > 100 µM
OC1OC(c2ccc[nH]2)C(F)(F)C(F)(F)C1(F)F (stereo not drawn) | inactive: > 100 µM
CCCCCCCCCCCCCCCCCc1nnc(N)o1 | inactive: > 100 µM
N#CCCSC(=S)C1CCCC1=N (stereo not drawn) | inactive: > 100 µM
O=C1C(=O)N(c2cccc(C(F)(F)F)c2)C(=O)C(=O)C1c1nc2ccccc2s1 | inactive: > 100 µM
Oc1cc(O)c2c(-c3c(O)c(-c4ccc(O)c(O)c4)[o+]c4cc(O)cc(O)c34)c(O)c(-c3ccc(O)c(O)c3)[o+]c2c1 | inactive: 33.4 µM

Counter-ions that a name gives are not always drawn.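 Five compound concentrations were applied to cells in 96-well plates for 48 hours; endpoints were derived by simple linear interpolation of the resulting dose-response curve. Abbreviation: GI50, concentration required for 50% inhibition of growth.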 Calls of active or inactive are those of the source. Rule as the data show it: active = GI50 up to about 1.1 µM and inactive = higher.
